Results: the supplement of paper PMC10441789
The list shows a part of the results. Antibody binding of pooled human sera (four to six donors per pool; dilution not stated) to peptides of the Trypanosoma cruzi antigen TSSA on microarrays. Quantile-normalised fluorescence in arbitrary units, mean of duplicate arrays; higher = more binding. No active / inactive call. The uninfected pools are read here as the healthy donors of the same country. The strongest signals lie near the top of the scale (about 60,000).

What was measured:
Assay in all cases: antibody binding signal (normalised fluorescence) (arbitrary fluorescence units); higher = stronger serum antibody binding to peptide
[1] = tested on: pooled sera of chronic Chagas disease patients, Argentina
Protocol: (§1)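 Microarray of 15-residue peptides over residues 30-55 of Trypanosoma cruzi TSSAII, each with 1 to 10 substitutions at naturally variable positions, probed with one serum pool per country.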

[2] = tested on: pooled sera of chronic Chagas disease patients, Bolivia
Protocol: as §1

[3] = tested on: pooled sera of chronic Chagas disease patients, Brazil
Protocol: as §1

[4] = tested on: pooled sera of chronic Chagas disease patients, Colombia
Protocol: as §1

[5] = tested on: pooled sera of chronic Chagas disease patients, Mexico
Protocol: as §1

[6] = tested on: pooled sera of chronic Chagas disease patients, USA
Protocol: as §1

[7] = tested on: pooled sera of uninfected people, Argentina
Protocol: as §1

[8] = tested on: pooled sera of uninfected people, Bolivia
Protocol: as §1

[9] = tested on: pooled sera of uninfected people, Brazil
Protocol: as §1

[10] = tested on: pooled sera of uninfected people, Mexico
Protocol: as §1

[11] = tested on: pooled sera of uninfected people, USA
Protocol: as §1

Row | Sequence | antibody binding signal [1] | antibody binding signal [2] | antibody binding signal [3] | antibody binding signal [4] | antibody binding signal [5] | antibody binding signal [6] | antibody binding signal [7] | antibody binding signal [8] | antibody binding signal [9] | antibody binding signal [10] | antibody binding signal [11]
1 | GTDKKPATGGAPSPS | 1250 | 3280 | 3210 | 6740 | 2020 | 2860 | 304 | 905 | 149 | 593 | 202
2 | TENKTAAGGAPSPSG | 26500 | 629 | 377 | 5710 | 634 | 395 | 439 | 192 | 687 | 459 | 246
3 | GKENKAAAGEAPSQS | 6760 | 6660 | 22100 | 11900 | 7870 | 22200 | 371 | 134 | 101 | 116 | 95
4 | DNKTATGEAPSPSGA | 14800 | 35700 | 16300 | 290 | 284 | 11900 | 222 | 153 | 255 | 131 | 132
5 | EKKTATGGTPSQPGA | 785 | 432 | 935 | 3640 | 661 | 1550 | 471 | 962 | 432 | 773 | 839
6 | ENKAAAGGAPSQPGA | 428 | 3360 | 16300 | 3430 | 386 | 2250 | 305 | 228 | 198 | 281 | 383
7 | PSGTEKKAATGGAPS | 12000 | 400 | 3220 | 3850 | 5150 | 4340 | 839 | 609 | 116 | 202 | 369
8 | SGKEKKAATGEAPSP | 23200 | 6350 | 19700 | 1200 | 3010 | 19300 | 568 | 200 | 101 | 99.2 | 137
9 | SGTDKKPAAGEAPSQ | 1680 | 17000 | 30900 | 9290 | 824 | 14700 | 111 | 226 | 139 | 2770 | 136
10 | TPPSGTENKAATGEA | 42300 | 38200 | 43500 | 216 | 1640 | 19100 | 1760 | 267 | 273 | 232 | 201
11 | GKDNKPAAGGAPSQP | 432 | 233 | 12100 | 964 | 1210 | 903 | 215 | 396 | 140 | 112 | 121
12 | PSGTDKKPAAGGTPS | 3330 | 1010 | 26800 | 14500 | 4210 | 3490 | 205 | 652 | 1150 | 1680 | 280
13 | SGKENKTAAGETPSQ | 4900 | 3830 | 19300 | 7430 | 5430 | 18400 | 7180 | 3230 | 340 | 874 | 185
14 | PPSGTDKKAAAGGAP | 9070 | 1680 | 23900 | 8340 | 33500 | 1360 | 486 | 251 | 188 | 1670 | 295
15 | KKAAAGETPSPPGAS | 203 | 260 | 450 | 198 | 131 | 1050 | 263 | 316 | 93.3 | 135 | 325
16 | KDKKPAAGGTPSQSG | 157 | 171 | 213 | 1060 | 171 | 269 | 105 | 74.9 | 659 | 76.8 | 86.7
17 | DNKAAAGGTPSQSGA | 468 | 261 | 548 | 3050 | 308 | 1090 | 263 | 326 | 2240 | 676 | 229
